# From the supplement of paper PMC8728848
# This is one part of the list.
# B1: ClecSol-Fc (Cryptosporidium parvum) (protein)
# chain: CPEGWISNGEKTRCFKLVTFDRPRTFSHGFKACNDLGGTEVETRRRNGSKETNEYPVTLASVYKLSDEEAIRRTLVEQGDIHKTANGCFVGLRKYAFFRYPPGWYWIDSGSPVSVRDSEINWTSSYNASWLLRFKFPFEKCGFFDIGGLGRRPCWLIDSELSCAVCGTVAYDSGGLNPNKYSELIKQTDEIISKEPKLDLPGYNNLNCTDAWENNLSVGLCQNVSNILDSAWSSYQSSLNFPSINFNWKEDSTNEGGDQVYHNSYLDLPRYKQKKTFYWDQDPGTIPALSDEMKLIGLSAQPTYHPLDRSSSGSFESDSTESGRANEERNDTLEEMIYKQSSDSIEDILVPVTKPIFSDYSSIGRNSGVEEVYSSNVSTISSKGVVFPNTTTSSDNDFTKNNPANSSKHTSTSTTTNTTTTTTRTTTTTTTTTTTTTTTTTTTTETTTTKKSTTATKNTTTT
# How the values were obtained:
# Experiment in all cases: glycan array binding signal (z-score within array); higher = stronger binding
# Conditions in all cases: glycan notation: IUPAC condensed, linker removed
# [1] = target: GalNAc3S(b1-4)[Fuc(a1-3)]GlcNAc
# Method in brief: (§1)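 Arrays were curated from the Consortium for Functional Glycomics database, 3228 in total, and kept only where the protein sequence was available. Binding is expressed as a within-array Z-score. This score was averaged across arrays of the same protein sequence at different concentrations or buffers and across linkers, and negative values can be read as non-binding.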
# [2] = target: GalNAc4S6S(b1-4)GlcNAc
# Method in brief: as §1
# [3] = target: GalNAc6S(b1-4)GlcNAc
# Method in brief: as §1
# [4] = target: Glc(a1-4)Glc
# Method in brief: as §1
# [5] = target: Glc(a1-4)Glc(a1-4)Glc(a1-4)Glc
# Method in brief: as §1
# [6] = target: Glc(a1-6)Glc(a1-6)Glc
# Method in brief: as §1
# [7] = target: Glc(a1-6)Glc(a1-6)Glc(a1-6)Glc
# Method in brief: as §1
# [8] = target: Glc(b1-4)Glc
# Method in brief: as §1
# [9] = target: Glc(b1-6)Glc
# Method in brief: as §1
# [10] = target: GlcA(b1-3)Gal
# Method in brief: as §1
# [11] = target: GlcA(b1-3)GlcNAc
# Method in brief: as §1
# [12] = target: GlcA(b1-6)Gal
# Method in brief: as §1
# [13] = target: GlcA3S(b1-3)Gal(b1-4)GlcNAc(b1-2)Man
# Method in brief: as §1
# [14] = target: GlcA3S(b1-3)Gal(b1-4)GlcNAc(b1-3)Gal(b1-4)Glc
# Method in brief: as §1
# [15] = target: GlcNAc(a1-3)Gal(b1-4)GlcNAc
# Method in brief: as §1
# [16] = target: GlcNAc(a1-4)Gal(b1-3)GlcNAc
# Method in brief: as §1
# [17] = target: GlcNAc(a1-4)Gal(b1-4)GalNAc
# Method in brief: as §1
# [18] = target: GlcNAc(a1-4)Gal(b1-4)GlcNAc
# Method in brief: as §1
# [19] = target: GlcNAc(a1-4)Gal(b1-4)GlcNAc(b1-3)Gal(b1-4)Glc
# Method in brief: as §1
# [20] = target: GlcNAc(a1-4)Gal(b1-4)GlcNAc(b1-3)Gal(b1-4)GlcNAc
# Method in brief: as §1
# [21] = target: GlcNAc(a1-4)Gal(b1-4)GlcNAc(b1-3)Gal(b1-4)GlcNAc(b1-3)Gal(b1-4)GlcNAc
# Method in brief: as §1
# [22] = target: GlcNAc(a1-4)Gal(b1-4)GlcNAc(b1-3)Gal(b1-4)[Fuc(a1-3)]GlcNAc(b1-3)Gal(b1-4)[Fuc(a1-3)]GlcNAc
# Method in brief: as §1
# [23] = target: GlcNAc(a1-6)Gal(b1-4)GlcNAc
# Method in brief: as §1
# [24] = target: GlcNAc(b1-2)Gal(b1-3)GalNAc
# Method in brief: as §1
# [25] = target: GlcNAc(b1-2)Man(a1-3)[GlcNAc(b1-2)Man(a1-6)]Man(b1-4)GlcNAc(b1-4)GlcNAc
# Method in brief: as §1
# [26] = target: GlcNAc(b1-2)Man(a1-3)[GlcNAc(b1-2)Man(a1-6)]Man(b1-4)GlcNAc(b1-4)[Fuc(a1-6)]GlcNAc
# Method in brief: as §1
# [27] = target: GlcNAc(b1-2)Man(a1-3)[GlcNAc(b1-4)][GlcNAc(b1-2)Man(a1-6)]Man(b1-4)GlcNAc(b1-4)GlcNAc
# Method in brief: as §1
# [28] = target: GlcNAc(b1-2)Man(a1-3)[GlcNAc(b1-4)][GlcNAc(b1-2)Man(a1-6)]Man(b1-4)GlcNAc(b1-4)[Fuc(a1-6)]GlcNAc
# Method in brief: as §1
# [29] = target: GlcNAc(b1-2)[GlcNAc(b1-4)]Man(a1-3)[GlcNAc(b1-2)Man(a1-6)]Man(b1-4)GlcNAc(b1-4)GlcNAc
# Method in brief: as §1
# [30] = target: GlcNAc(b1-2)[GlcNAc(b1-4)]Man(a1-3)[GlcNAc(b1-4)][GlcNAc(b1-2)Man(a1-6)]Man(b1-4)GlcNAc(b1-4)GlcNAc
# Method in brief: as §1
# [31] = target: GlcNAc(b1-2)[GlcNAc(b1-4)]Man(a1-3)[GlcNAc(b1-4)][GlcNAc(b1-2)[GlcNAc(b1-6)]Man(a1-6)]Man(b1-4)GlcNAc(b1-4)GlcNAc
# Method in brief: as §1
# [32] = target: GlcNAc(b1-2)[GlcNAc(b1-4)]Man(a1-3)[GlcNAc(b1-4)][GlcNAc(b1-2)[GlcNAc(b1-6)]Man(a1-6)]Man(b1-4)GlcNAc(b1-4)[Fuc(a1-6)]GlcNAc
# Method in brief: as §1
# [33] = target: GlcNAc(b1-2)[GlcNAc(b1-6)]Man(a1-6)[GlcNAc(b1-2)Man(a1-3)]Man(b1-4)GlcNAc(b1-4)GlcNAc
# Method in brief: as §1
# [34] = target: GlcNAc(b1-2)[GlcNAc(b1-6)]Man(a1-6)[GlcNAc(b1-2)Man(a1-3)]Man(b1-4)GlcNAc(b1-4)[Fuc(a1-6)]GlcNAc
# Method in brief: as §1
# [35] = target: GlcNAc(b1-2)[GlcNAc(b1-6)]Man(a1-6)[GlcNAc(b1-4)][GlcNAc(b1-2)Man(a1-3)]Man(b1-4)GlcNAc(b1-4)GlcNAc
# Method in brief: as §1
# [36] = target: GlcNAc(b1-3)Fuc
# Method in brief: as §1
# [37] = target: GlcNAc(b1-3)Gal
# Method in brief: as §1
# [38] = target: GlcNAc(b1-3)Gal(b1-3)GalNAc
# Method in brief: as §1
binder,measurement,setting,value
B1,glycan array binding signal (z-score),[1],0.219
same,glycan array binding signal (z-score),[2],-0.01
same,glycan array binding signal (z-score),[3],-0.236
same,glycan array binding signal (z-score),[4],0.234
same,glycan array binding signal (z-score),[5],-0.148
same,glycan array binding signal (z-score),[6],-0.142
same,glycan array binding signal (z-score),[7],-0.083
same,glycan array binding signal (z-score),[8],-0.265
same,glycan array binding signal (z-score),[9],-0.126
same,glycan array binding signal (z-score),[10],-0.082
same,glycan array binding signal (z-score),[11],-0.094
same,glycan array binding signal (z-score),[12],-0.059
same,glycan array binding signal (z-score),[13],0.302
same,glycan array binding signal (z-score),[14],0.237
same,glycan array binding signal (z-score),[15],-0.058
same,glycan array binding signal (z-score),[16],0.049
same,glycan array binding signal (z-score),[17],18.7
same,glycan array binding signal (z-score),[18],0.338
same,glycan array binding signal (z-score),[19],0.038
same,glycan array binding signal (z-score),[20],2.11
same,glycan array binding signal (z-score),[21],1.61
same,glycan array binding signal (z-score),[22],0.617
same,glycan array binding signal (z-score),[23],0.052
same,glycan array binding signal (z-score),[24],-0.057
same,glycan array binding signal (z-score),[25],-0.081
same,glycan array binding signal (z-score),[26],-0.096
same,glycan array binding signal (z-score),[27],0.018
same,glycan array binding signal (z-score),[28],-0.114
same,glycan array binding signal (z-score),[29],0.283
same,glycan array binding signal (z-score),[30],-0.044
same,glycan array binding signal (z-score),[31],-0.222
same,glycan array binding signal (z-score),[32],-0.191
same,glycan array binding signal (z-score),[33],-0.117
same,glycan array binding signal (z-score),[34],0.082
same,glycan array binding signal (z-score),[35],-0.202
same,glycan array binding signal (z-score),[36],0.075
same,glycan array binding signal (z-score),[37],-0.151
same,glycan array binding signal (z-score),[38],0.006
